For 28 compounds, cytotoxicity call and growth inhibition call results are on record in the antibiotic and cytotoxicity screens of Wong et al. (2023).

The list shows a part of the results.

Assay [1] deals with HSkMC (human skeletal muscle cells). The assay is described as follows: cytotoxicity call (relative viability < 0.9). The following applies: 10 µM.
Assay [2] relates to HepG2. The assay is described as follows: cytotoxicity call (relative viability < 0.9). The following applies: 10 µM.
The subject of assay [3] is S. aureus RN4220. The assay is described as follows: growth inhibition call (relative growth <= 0.2). The following applies: 50 µM.

For the compound `C[C@H](CO)N1C[C@H](C)[C@H](CN(C)C(=O)Nc2ccccc2)OCCCC[C@H](C)Oc2ccc(NC(=O)CCC(F)(F)F)cc2C1=O`, the cytotoxicity call in assay [1] and in assay [2] was “inactive” each time. In assay [3], the growth inhibition call is “inactive”.
Consider `C[C@@H]1CN([C@@H](C)CO)C(=O)Cc2cc(NC(=O)Cn3cnnn3)ccc2O[C@H]1CN(C)C(=O)Nc1ccc(F)cc1`, for which the cytotoxicity call in assay [1] and in assay [2] was “inactive” throughout. In assay [3], the growth inhibition call is “inactive”.
For the compound `C=CCNC(=O)C(=O)NC[C@H]1OCCCN1S(=O)(=O)c1ccccc1`, the cytotoxicity call in assay [1] and in assay [2] was “inactive” in each case. Besides, the growth inhibition call in assay [3] is “inactive”.
For `C[C@H](CO)N1C[C@H](C)[C@H](CN(C)S(=O)(=O)c2cn(C)cn2)OCc2cnnn2CCCC1=O`, the cytotoxicity call in assay [1] and in assay [2] was “inactive” throughout. In addition, the growth inhibition call in assay [3] is “inactive”.
On to `COc1cccc(C(=O)Nc2ccc3c(c2)C(=O)N(C)[C@@H]2CC[C@H](CC(=O)NCCCN4CCOCC4)O[C@H]2CO3)c1`, for which the cytotoxicity call in assay [1] and in assay [2] was “inactive” throughout. In addition, in assay [3], the growth inhibition call was “inactive”.
Turning to `C[C@H](CO)N1C[C@H](C)[C@@H](CN(C)S(=O)(=O)c2cccs2)Oc2ccc(NS(C)(=O)=O)cc2CC1=O`, the cytotoxicity call in assay [1] and in assay [2] was “inactive” in each case. In assay [3], the growth inhibition call is “inactive”.
In the case of `CC(C)CC#Cc1ccc2c(c1)O[C@@H](CN(C)C(=O)c1cccnc1)[C@H](C)CN([C@@H](C)CO)S2(=O)=O`, the cytotoxicity call in assay [1] and in assay [2] was “inactive” each time. Moreover, the growth inhibition call in assay [3] was “inactive”.
`COc1ccc(Cc2cnc(N)nc2N)cc1OC`: the cytotoxicity call in assay [1] and in assay [2] was “inactive” throughout. Further, the growth inhibition call in assay [3] is “active”.
For the compound `COc1ccc(CN(C)C[C@@H]2OCCCC[C@@H](C)Oc3ccc(NC(=O)C4CCCCC4)cc3C(=O)N([C@H](C)CO)C[C@@H]2C)cc1`, the cytotoxicity call in assay [1] and in assay [2] was “inactive” in each case. In addition, in assay [3], the growth inhibition call is “inactive”.
With `O=C(C[C@H]1C[C@@H]2c3cc(NS(=O)(=O)c4ccc(F)cc4)ccc3O[C@@H]2[C@@H](CO)O1)NCCc1ccccc1`, the cytotoxicity call in assay [1] and in assay [2] was “inactive” throughout. In assay [3], the growth inhibition call is “inactive”.
Consider `CO[C@@H]1CN(C)C(=O)c2ccc(NC(=O)C3CC3)cc2OC[C@@H](C)N(C(=O)Nc2ccc(C(F)(F)F)cc2)C[C@H]1C`, for which the cytotoxicity call in assay [1] and in assay [2] was “inactive” in each case. Besides, the growth inhibition call in assay [3] is “inactive”.
As for `C[C@H]1CCCCO[C@H](CN(C)S(=O)(=O)c2cn(C)cn2)[C@@H](C)CN([C@@H](C)CO)C(=O)c2cc(NS(=O)(=O)c3ccc(F)cc3)ccc2O1`, the cytotoxicity call in assay [1] and in assay [2] was “inactive” each time. The growth inhibition call in assay [3] was “inactive”.
For `O=C(C[C@@H]1CC[C@H](NC(=O)Nc2ccc3c(c2)OCO3)[C@@H](CO)O1)NCCCN1CCOCC1`, the cytotoxicity call in assay [1] and in assay [2] was “inactive” in each case. For the same compound, the growth inhibition call in assay [3] was “inactive”.
On to `C[C@H]1CN([C@@H](C)CO)C(=O)c2cc(NC(=O)Cc3cn(C)c4ccccc34)ccc2O[C@@H]1CN(C)C(=O)Nc1cccc2ccccc12`, for which the cytotoxicity call in assay [1] and in assay [2] was “inactive” each time. Besides, in assay [3], the growth inhibition call was “inactive”.
On to `COCC(=O)Nc1ccc2c(c1)C(=O)N(C)[C@@H]1CC[C@H](CC(=O)N3CCc4ccccc4C3)O[C@H]1CO2`, for which the cytotoxicity call in assay [1] and in assay [2] was “inactive” in each case. Also, the growth inhibition call in assay [3] was “inactive”.
With `COc1ccc(NC(=O)Nc2ccc3c(c2)CC(=O)N([C@H](C)CO)C[C@H](C)[C@H](CN(C)S(=O)(=O)c2c(C)noc2C)O3)cc1`, the cytotoxicity call in assay [1] and in assay [2] was “inactive” in each case. Also, the growth inhibition call in assay [3] was “inactive”.
Take `O=C(C[C@H]1C=C[C@@H](NC(=O)CN2CCOCC2)[C@@H](CO)O1)NCc1cccc(F)c1`: the cytotoxicity call in assay [1] and in assay [2] was “inactive” in each case. In addition, the growth inhibition call in assay [3] was “inactive”.
On to `COc1ccc(NC(=O)Nc2ccc3c(c2)C(=O)N([C@H](C)CO)C[C@H](C)[C@@H](CN(C)S(=O)(=O)c2ccc(OC)cc2)OCCCC[C@H](C)O3)cc1`, for which the cytotoxicity call in assay [1] and in assay [2] was “inactive” in each case. For the same compound, in assay [3], the growth inhibition call was “inactive”.
Regarding `COc1ccccc1S(=O)(=O)N[C@@H]1CC[C@H](CCNC(=O)C2CCOCC2)O[C@@H]1CO`, the cytotoxicity call in assay [1] and in assay [2] was “inactive” in each case. For the same compound, in assay [3], the growth inhibition call was “inactive”.
On to `CC1(C)CC2C(=O)CCC3OC3(C)CCC21` (centres undefined), for which the cytotoxicity call in assay [1] and in assay [2] was “inactive” in each case. Further, the growth inhibition call in assay [3] was “inactive”.
For the compound `C[C@@H]1CCCCO[C@H](CN(C)C(=O)CCC(F)(F)F)[C@@H](C)CN([C@H](C)CO)C(=O)c2cc(NS(=O)(=O)c3cccs3)ccc2O1`, the cytotoxicity call in assay [1] and in assay [2] was “inactive” throughout. The growth inhibition call in assay [3] is “inactive”.
As for `COc1ccc(NC(=O)N(C)C[C@H]2OCCCC[C@H](C)Oc3ccc(NS(=O)(=O)c4c(C)noc4C)cc3C(=O)N([C@@H](C)CO)C[C@H]2C)cc1`, the cytotoxicity call in assay [1] and in assay [2] was “inactive” in each case. In assay [3], the growth inhibition call was “inactive”.
Regarding `N[C@@H](C(=O)N[C@@H]1C(=O)N2C(C(=O)O)=C(Cl)CS[C@H]12)c1ccccc1`, the cytotoxicity call in assay [1] and in assay [2] was “inactive” each time. For the same compound, the growth inhibition call in assay [3] is “active”.
In the case of `O=C(C[C@H]1CC[C@H]2[C@@H](COC[C@H](O)CN2C(=O)C2CC2)O1)NCc1ccncc1`, the cytotoxicity call in assay [1] and in assay [2] was “inactive” in each case. The growth inhibition call in assay [3] is “inactive”.
`CN1CCN(C(=O)[C@@H]2[C@@H](CO)[C@@H]3Cn4c(cccc4=O)[C@H]2N3Cc2ccncc2)CC1`: the cytotoxicity call in assay [1] and in assay [2] was “inactive” each time. In assay [3], the growth inhibition call is “inactive”.
On to `O=C(N[C@@H]1CC(=O)N(C2CC2)C1)C1CCC1`, for which the cytotoxicity call in assay [1] and in assay [2] was “inactive” throughout. In addition, the growth inhibition call in assay [3] was “inactive”.
Consider `Cc1ccc(S(=O)(=O)N(C)C[C@H]2OCCCC[C@@H](C)Oc3ccc(NC(=O)NC4CCCCC4)cc3C(=O)N([C@H](C)CO)C[C@H]2C)cc1`, for which the cytotoxicity call in assay [1] is “inactive”. Also, the cytotoxicity call in assay [2] was “active”. Further, the growth inhibition call in assay [3] is “inactive”.
Consider `COC(=O)C[C@@H]1CC[C@H]2[C@@H](COC[C@H](O)CN2S(=O)(=O)c2ccccc2C)O1`, for which the cytotoxicity call in assay [1] and in assay [2] was “inactive” in each case. Besides, the growth inhibition call in assay [3] was “inactive”.
